Over roughly 110,000 compounds, “z-score” has its median near -0.1; the highest 2% begin near 2. Some of the results follow.
molecular target: Metabotropic glutamate receptor 8 (Rattus norvegicus) (UniProt P70579); test: mGluR8 Gi/Go-coupled signaling modulation – cell-based, rat, thallium flux, HTS, primary screen (AID 488969); conditions: HEK293 rat mGluR8, GIRK (G protein-gated inwardly rectifying potassium channel) thallium flux, FluoZin2; at 10 µM; stronger effect = higher value; submaximal glutamate (EC20) added with thallium
Sequence of UniProt P70579 (P70579 whole entry, looked up): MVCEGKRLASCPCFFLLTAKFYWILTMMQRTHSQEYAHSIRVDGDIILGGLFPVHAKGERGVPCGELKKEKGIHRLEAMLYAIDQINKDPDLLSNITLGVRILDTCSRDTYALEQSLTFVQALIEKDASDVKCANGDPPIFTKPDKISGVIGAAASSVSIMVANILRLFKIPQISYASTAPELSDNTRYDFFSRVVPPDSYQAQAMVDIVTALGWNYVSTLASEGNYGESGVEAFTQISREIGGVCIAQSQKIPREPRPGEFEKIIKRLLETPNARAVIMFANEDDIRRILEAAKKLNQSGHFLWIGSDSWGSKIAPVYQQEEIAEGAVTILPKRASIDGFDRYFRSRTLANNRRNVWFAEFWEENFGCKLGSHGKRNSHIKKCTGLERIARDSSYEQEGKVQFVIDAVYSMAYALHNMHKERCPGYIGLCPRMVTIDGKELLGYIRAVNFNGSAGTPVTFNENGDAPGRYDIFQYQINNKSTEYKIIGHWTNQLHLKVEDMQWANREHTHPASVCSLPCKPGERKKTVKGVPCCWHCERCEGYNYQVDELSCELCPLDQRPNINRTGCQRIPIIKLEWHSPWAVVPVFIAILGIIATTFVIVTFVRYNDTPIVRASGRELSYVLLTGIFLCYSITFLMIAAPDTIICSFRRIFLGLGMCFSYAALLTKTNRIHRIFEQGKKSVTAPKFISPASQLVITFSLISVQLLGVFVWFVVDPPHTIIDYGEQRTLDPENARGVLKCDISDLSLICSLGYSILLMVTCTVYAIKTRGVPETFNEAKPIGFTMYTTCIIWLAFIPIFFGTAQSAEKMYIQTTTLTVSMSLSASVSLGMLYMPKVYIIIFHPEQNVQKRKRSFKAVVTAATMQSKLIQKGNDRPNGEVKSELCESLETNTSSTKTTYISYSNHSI

Structure (SMILES) | z-score
CCC(C)(CC(=O)N(C)CCC#N)c1ccccc1 (stereo not given) | -0.0613
Cc1ccc(C)c(Nc2nc3nonc3nc2N2CCOCC2)c1 | 0.382
CCOC(=O)CSC1=N/C(=C\c2cc(OC)c(OC)c(OC)c2)C(=O)N1C | -0.241
CC1CCC(C(C)C)C(OCC(O)CN2CCN(Cc3ccccc3)CC2)C1 (stereo not given) | 0.223
CCN1CCN(C(=O)C2CCN(C(=O)c3cc4sccc4n3CC)CC2)CC1 | 2.56
O=C(Nc1ccccc1)c1ccc(NCC2CCCO2)c(S(=O)(=O)N2CCOCC2)c1 (stereo not given) | -0.736
C=C(C)Cn1c(SCC(=O)O)nnc1-c1ccc(OC)cc1 | 0.199
CCCOc1ccc(/C=C2\SC(=S)N(CC3CCCO3)C2=O)cc1 (stereo not given) | 0.0404
CS(=O)(=O)N1Cc2ccccc2CC1C(=O)Nc1ccccc1C(N)=O (stereo not given) | 0.539
Cc1ccc(C2(C)NC(=O)N(CC(=O)Nc3c(C)n(C)n(-c4ccccc4)c3=O)C2=O)cc1 (stereo not given) | -0.208
Cc1ccc(NC(=O)c2cn(CCC#N)nc2-c2cccs2)c([N+](=O)[O-])c1 | -0.0985
CCc1ccc(C(=O)/C=C/c2ccc([N+](=O)[O-])o2)cc1 | 0.113
O=C(c1ccccc1-c1nc(-c2ccc(Cl)cc2)no1)N1CCCC1 | -0.446
O=C(Oc1cccc(NC(=O)c2ccco2)c1)c1cccc(S(=O)(=O)N2CCCCC2)c1 | -0.064
CC(CNCC1CCCO1)COc1ccccc1 (stereo not given) | 0.0848
CC(C)(C)Nc1nc(N2CCCC2)nc(N2CCCC2)n1 | -0.14
CCCOc1ccc(C(=O)C(CCC(CNCC)C(=O)c2ccc(OCCC)cc2)CNCC)cc1 (stereo not given) | 1.9
CCOC(=O)c1cc(C)sc1N1C(=O)C2C3C=CC(C3)C2C1=O (stereo not given) | -0.94
O=C(c1ncc[nH]1)c1ccco1 | -2.2
CC1CCN(C(=S)NCCc2ccccc2)CC1 | -0.0312
O=[N+]([O-])c1cc(-c2nc3nc4ccccc4nc3n2CCc2ccccc2)cc([N+](=O)[O-])c1 | -0.354
Cc1ccccc1C(=O)NNC(=O)C(=O)N1CCCCC1 | -0.181
COc1ccc(CN(CCN(C)C)Cc2ccccc2)c(OC)c1 | -0.114
O=c1nc(Nc2ccccc2)sc2ccc([N+](=O)[O-])cc12 | 0.119
CN(C)CCCSc1nc(-c2ccccc2)nc2c1CCC2 | 0.263
Cc1nn(-c2ccccc2)c(N)c1N=Nc1ccc(Cl)cc1 | -0.172
O=C(COc1ccccc1)Nc1ccc(Cl)c(-c2nc3ncccc3o2)c1 | 0.571
CCOC(=O)c1c(NC(=O)COC)sc(C)c1C | -1.71

Structure (SMILES) | z-score
CCCCOC(=O)c1cc(-c2ccc(/C=N/n3cnnc3)o2)ccc1Cl | -0.536
COc1ccccc1C1(CC(=O)N2CCCCC2)CCOC(C(C)C)C1 (stereo not given) | -0.108
C=CCSC1=C(C#N)C(c2ccc(OCC)cc2)CC(=O)N1 (stereo not given) | -0.68
CC(C)c1ccc(C2NC(=O)NC3=C2CCc2ccccc23)cc1 (stereo not given) | -1.97
Cc1ccc(-c2nn(-c3ccccc3)cc2CSC(=N)N)cc1 | 1.43
COc1ccc(N2CCN(/C(=N\S(=O)(=O)c3ccccc3)Nc3nc(C)cc(C)n3)CC2)cc1 | -0.27
Cc1ccc(-c2nn(-c3ccccc3)cc2C(=O)Nc2cccc(S(=O)(=O)N3CCOCC3)c2)cc1 | -0.18
O=C(O)c1cccnc1SC1CC(=O)N(c2cccc(C(F)(F)F)c2)C1=O (stereo not given) | 0.224
COc1cccc(C(=O)Nc2nc(C)cs2)c1 | 0.159
Cc1cc(Nc2ccccc2)c2c([N+](=O)[O-])cc(C)c(C)c2n1 | -0.275
Cc1ccc(N/C=C/C(=O)c2sc(-c3ccccc3)nc2C)cc1 | -0.176
Cc1ccc(C(C)C)c(OCCCN2CC(C)OC(C)C2)c1 (stereo not given) | 0.0811
Cc1sc2nc(C)n(/N=C/c3ccccc3)c(=O)c2c1C | 1.25
O=C(O)c1ccc(NC(CSCc2cccc(F)c2)C(=O)O)c([N+](=O)[O-])c1 (stereo not given) | -0.0333
Cn1ccnc1C(O)(c1nnc(-c2ccccc2)o1)C(F)(F)F (stereo not given) | -1.19
COc1ccc(-c2nn(C)c(=O)c3ccccc23)cc1NC(=O)Cn1nc(C)c2ccccc2c1=O | -0.146
Cc1ccc(C(=O)NC2CCCCCC2)cc1N1CCCC1=O | 1.6
CCOC(=O)c1c2n(c3ccc(O)cc13)CCC2 | -0.715
COc1ccc(Nc2cc(C(=O)NCc3ccco3)c3ccccc3n2)c(OC)c1 | -0.421
COc1cccc(C2C3=C(CC(C)(C)CC3=O)OC(N)=C2[N+](=O)[O-])c1 (stereo not given) | -0.0905
CCOCc1nc(C)c(Cl)c(NS(=O)(=O)c2ccc(N)cc2)n1 | -0.149
Cc1ccc(S(=O)(=O)NCC(c2ccccc2)N2CCN(CCC#N)CC2)cc1 (stereo not given) | -0.26
Cc1cc(=O)n(C)c(=O)n1CCCCCCN1CCCC1 | 0.0302
CC1(C)COC(c2cc([N+](=O)[O-])ccc2Cl)=N1 | -0.41
Cc1cc(C)n(C(=O)c2ccc(Cn3nc(C)c(Br)c3C)o2)n1 | 0.0818
Cc1ccc(C(C(=O)NC2CCCCC2)N(C(=O)CCCC(=O)Nc2ccccn2)c2ccc3c(c2)OCCO3)cc1 (stereo not given) | -0.444
O=C(NCc1nnc(SCC(=O)N2CCCC2)o1)c1c(F)cccc1Cl | -0.244

From PubChem BioAssay AID488969 (Vanderbilt High Throughput Screening Facility, 2010)
